Data taken from PubChem BioAssay AID1159614 (National Center for Advancing Translational Sciences (NCATS), 2016).
Out of some 45,000 compounds screened, about 65 (0.1%) were called active. The call rests on the fitted dose curve; in most records, active means well fitted activation curve with a large enough effect; inconclusive means small, poorly fitted or top-dose-only effect; inactive means no such curve, though single readings can be large or run the other way. This is one part of the list.

The compounds below were run against Galactocerebrosidase (Homo sapiens) (UniProt P54803) (assay: A Novel Cell-Based Assay to Identify Small Molecules for B -Galactocerebrosidase). Conditions: 145M-Twi-hGALC-G270D cells (Twitcher mouse brain line with human GALC G270D), HMU-beta-Gal fluorescence, 48 h; series mostly up to 57.5 µM; activation: at the top concentration.
Method in brief: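 Mutant human GALC (G270D), stably expressed in a Twitcher mouse brain cell line lacking endogenous GALC, is measured in live-treated cells via 6-hexadecanoylamino-4-methylumbelliferyl-β-galactoside hydrolysis (0.1 mM final, pH 5.2) with fluorescent detection.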
Further: 0% is about no effect; nearly all actives have a fitted effect of over 65% in size.

Chain of UniProt P54803 (P54803 whole entry, looked up): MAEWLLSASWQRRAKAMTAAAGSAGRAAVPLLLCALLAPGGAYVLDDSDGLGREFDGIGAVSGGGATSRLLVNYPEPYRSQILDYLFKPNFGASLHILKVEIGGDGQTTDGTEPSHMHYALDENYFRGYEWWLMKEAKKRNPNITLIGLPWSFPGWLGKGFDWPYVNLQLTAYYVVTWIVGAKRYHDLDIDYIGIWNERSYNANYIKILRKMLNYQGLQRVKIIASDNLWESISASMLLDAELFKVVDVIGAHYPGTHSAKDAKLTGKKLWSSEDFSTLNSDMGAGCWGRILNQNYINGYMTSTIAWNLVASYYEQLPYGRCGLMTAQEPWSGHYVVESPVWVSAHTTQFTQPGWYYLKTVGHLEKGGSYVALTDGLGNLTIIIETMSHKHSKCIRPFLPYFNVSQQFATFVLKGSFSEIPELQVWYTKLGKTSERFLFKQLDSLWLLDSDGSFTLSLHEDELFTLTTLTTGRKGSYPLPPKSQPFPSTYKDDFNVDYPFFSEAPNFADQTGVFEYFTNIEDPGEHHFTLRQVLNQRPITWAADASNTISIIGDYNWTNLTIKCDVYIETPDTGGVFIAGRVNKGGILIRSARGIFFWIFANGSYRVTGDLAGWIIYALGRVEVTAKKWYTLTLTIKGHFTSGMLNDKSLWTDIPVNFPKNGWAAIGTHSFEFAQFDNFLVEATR

activation, inactive:
CCOC(=O)c1ccccc1NC(=O)NC(C)c1c(-n2cccc2)sc(C)c1C (stereo unspecified) 5.8%
O=C(c1ccc2c(c1)N(Cc1ccccc1)C(=O)c1ccccc1S2(=O)=O)N1CCCC1 -0.924%
CCC(Sc1nc2c(sc3ccccc32)c(=O)n1CCc1ccccc1)C(=O)N(CC)CC (stereo unspecified) -12.4%
CCCCCC(=O)N1c2ccccc2C(C)(c2ccccc2)CC1(C)C (stereo unspecified) -27%
O=C(c1ccccc1Br)N(Cc1ccco1)C1CCS(=O)(=O)C1 (stereo unspecified) -14.6%
COc1ccc(Cn2c(C(=O)O)c(CNCC(C)c3ccccc3)c3ccc(OC)cc32)cc1 (stereo unspecified) -7.6%
Cc1ccc(C)c(N2CCN(C(=O)Nc3cn(CC(C)C)c(=O)c4ccccc34)CC2)c1 -21%
COc1ccc(NC(=O)CN2C(=O)C(c3ccc(C(C)(C)C)cc3)=NC2(C)C)cc1Cl -3.19%
COc1cccc(CCNC(=O)Cn2c(-c3cccs3)cc3ccccc32)c1 -7.3%
Cc1cc(C)cc(-n2c(SCC(=O)NCc3ccco3)nc3c([nH]c4ccccc43)c2=O)c1 -5.28%
CCOC(=O)N1CCN(Cc2nc3cc(NC(C)=O)ccc3n2C(C)C)CC1 -21.3%
CC(C)NC(=O)CCn1c(SCc2c(F)cccc2Cl)nc2c(sc3ccccc32)c1=O -13.3%
Cc1cccc(Cc2cnc(NC(=O)C3Cc4ccc(C)cc4C(=O)O3)s2)c1 (stereo unspecified) 1.16%
COc1cccc(Cn2c(=O)n(CC3CCC(C(=O)N4CCCCC4)CC3)c(=O)c3sccc32)c1 (stereo unspecified) -12.5%
COc1ccccc1N1CCN(C(=O)C2CCN(S(=O)(=O)c3c(C)noc3/C=C/c3ccc(C)cc3)CC2)CC1 -10.6%
CCCCn1c(SCC(=O)Nc2cccc(OC)c2)nc2c(sc3ccccc32)c1=O -15%
CCOC(=O)c1cc(-c2ccc(C)cc2)n(CCC(=O)Nc2nc3c(C)cccc3s2)c1C -5.47%
Cc1cc(-n2c(SCC(=O)NCc3ccccc3)nc3ccsc3c2=O)ccc1Cl -2.63%
Cc1ccc2c(c1)c(=O)c1ccccc1n2CCCC(=O)Nc1ccc(C)c(F)c1 -0.167%
Cc1nnc2c(N3CCN(c4ccccc4F)CC3)nc3ccccc3n12 -8.89%
COc1ccc(NC(=O)NCCc2c(C)nn(C)c2C)c(OC)c1 0.964%
CCc1ccc(NC(=O)CSc2nnc3[nH]c(=O)cc(-c4ccccc4)n23)cc1 -2.64%
CCOC(=O)c1c(C)[nH]c(CCC(=O)Nc2ccccc2C(F)(F)F)c1C -0.467%
CCCS(=O)(=O)N1CC(=O)N(c2cccc(F)c2)C(C)(C(=O)NC2CCCCCC2)C1 (stereo unspecified) -16.2%
COc1ccc(C(=O)Nc2ccc(S(=O)(=O)Nc3cc(C)nc(C)n3)cc2)cc1 -14.5%
O=C(CCS(=O)(=O)c1cc2c(cc1Cl)NC(=O)CO2)NCCc1ccccc1 -14.9%
